Experimental data as given in PubChem BioAssay AID1159614 (National Center for Advancing Translational Sciences (NCATS), 2016).
Screen size: about 45,000 compounds; about 65 (0.1%) were called active. Calls follow the shape of the dose curve; as a rule, active = well fitted activation curve with a large enough effect; inconclusive = small, poorly fitted or top-dose-only effect; inactive = no such curve, though single readings can be large or run the other way. The list shows a part of the results.

Target: Galactocerebrosidase (Homo sapiens) (UniProt P54803)
Assay: A Novel Cell-Based Assay to Identify Small Molecules for B -Galactocerebrosidase; also: 0% is about no effect; nearly all actives have a fitted effect of over 65% in size
Settings: 145M-Twi-hGALC-G270D cells (Twitcher mouse brain line with human GALC G270D), HMU-beta-Gal fluorescence, 48 h; series mostly up to 57.5 µM; activation: at the top concentration
Summary of the method: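 Mutant human GALC (G270D), stably expressed in a Twitcher mouse brain cell line lacking endogenous GALC, is measured in live-treated cells via 6-hexadecanoylamino-4-methylumbelliferyl-β-galactoside hydrolysis (0.1 mM final, pH 5.2) with fluorescent detection.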

Sequence of UniProt P54803 (P54803 whole entry, looked up): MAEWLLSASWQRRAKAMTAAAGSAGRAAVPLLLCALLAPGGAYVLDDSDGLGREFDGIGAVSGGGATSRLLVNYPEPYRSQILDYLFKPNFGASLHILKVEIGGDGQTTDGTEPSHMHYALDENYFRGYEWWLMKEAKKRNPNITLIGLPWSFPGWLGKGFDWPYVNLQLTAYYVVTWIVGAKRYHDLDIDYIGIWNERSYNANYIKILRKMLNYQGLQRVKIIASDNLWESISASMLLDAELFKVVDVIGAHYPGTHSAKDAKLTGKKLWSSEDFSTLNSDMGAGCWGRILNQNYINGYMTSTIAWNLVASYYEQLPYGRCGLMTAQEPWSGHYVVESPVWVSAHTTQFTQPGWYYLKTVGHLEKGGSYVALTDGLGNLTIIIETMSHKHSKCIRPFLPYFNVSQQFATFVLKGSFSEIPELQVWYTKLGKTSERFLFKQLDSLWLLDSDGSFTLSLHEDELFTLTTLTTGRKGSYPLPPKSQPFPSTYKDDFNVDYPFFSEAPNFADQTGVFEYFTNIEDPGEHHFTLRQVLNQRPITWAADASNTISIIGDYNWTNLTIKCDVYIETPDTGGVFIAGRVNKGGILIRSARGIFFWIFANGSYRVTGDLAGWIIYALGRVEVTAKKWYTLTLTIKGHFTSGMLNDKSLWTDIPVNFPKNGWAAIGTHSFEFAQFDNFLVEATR

SMILES | activation
Cc1oc(-c2ccccc2)nc1CNC(=O)NC1CCCCC1 | inactive: -5.44%
CCc1ccc(NC(=O)c2sc3nc(C)c(C(=O)Nc4ccc(C)cc4C)c(-c4ccco4)c3c2N)cc1 | inactive: -25%
COc1ccc(Nc2sc(C(=O)c3ccccc3)c(N)c2C(=O)Nc2cc(C)ccc2C)c(OC)c1 | inactive: -18.7%
Cc1ccn2c(c1)nc(=O)c1cc(S(=O)(=O)N3CCCCC3)c(Cl)cc12 | inactive: -12.9%
Cc1c(NC(=O)c2cc(-c3ccc(Br)cc3)on2)c(=O)n(-c2ccccc2)n1C | inactive: -25.1%
CCc1ccccc1NC(=O)CN(c1ccc(OC)cc1)S(=O)(=O)c1c(C)n[nH]c1C | inactive: -7.12%
Cc1cccc(-c2nc3scc(CCNS(=O)(=O)c4ccc(F)cc4C)n3n2)c1 | inactive: -4.52%
Cc1ccc(NC(=O)c2cc(S(=O)(=O)NCCC3=CCCCC3)ccc2F)cc1C | inactive: -11.7%
CCN1C(=O)c2ccccc2S(=O)c2ccc(C(=O)N3CCN(c4ccccc4)CC3)cc21 (centres undefined) | inactive: -12.4%
Cc1ccc(S(=O)(=O)c2nnn3c2nc(N2CCC(C)CC2)c2cc(Cl)ccc23)cc1C | inactive: -11.7%
CCOC(=O)c1c(NC(=O)/C=C/c2ccc(OCC)c(OC)c2)sc2c1CCC2 | inactive: -9.59%
COc1cccc(CNC(=O)CCCN2C(=O)CSc3c2c(C)nn3-c2ccccc2)c1OC | inactive: -11.4%
CCn1c(NCc2ccc(OC)c(OC)c2)nc2ccccc21 | inactive: -25.2%
Cc1cccc(NC(=O)CN2C(=O)c3ccccc3Sc3ncccc32)c1C | inactive: -12%
COc1ccccc1C(=O)OCc1cc(=O)n2nc(C3CCCCC3)sc2n1 | inactive: -16.6%
Cc1cccc(CCNC(=O)C2CCN(c3ncnc4c3nc3n4CCCCC3)CC2)c1 | inactive: -4.93%
CCOc1ccccc1CNC(=O)c1ccc2c(c1)sc1nc(-c3ccccc3)cn12 | inactive: -18.4%
Cc1ccc(Cl)cc1N1CCN(CCCNc2ncnc3onc(-c4ccc(Cl)cc4)c23)CC1 | inactive: -21.2%
Cc1noc2ncnc(N3CCCC(C(=O)NC(C)C)C3)c12 (centres undefined) | inactive: -10.3%
COc1ccc(CCNC(=O)CSC2=Nc3ccccc3C3=NC(CCC(=O)NCc4ccccc4)C(=O)N23)cc1OC (centres undefined) | inactive: -9.34%
CCOC(=O)c1cc(-c2ccccc2)n(CCC(=O)Nc2cc(OCC)ccc2OCC)c1C | inactive: -4.99%
COc1ccc(NC(=O)c2ccc(NC(=O)CCS(=O)(=O)c3cccs3)cc2)cc1OC | inactive: -8.39%
CCCCCn1c(CCCNC(=O)c2cccc(C)c2)nc2ccccc21 | inactive: -11.1%
O=C(CCC(=O)N1CC2CCCN2c2ccccc21)NCc1cccc(Cl)c1 (centres undefined) | inactive: -20.9%

SMILES | activation
COc1cc2c(=O)n(Cc3ccccc3Cl)c(=O)n(CC(=O)Nc3ccccc3)c2cc1OC | inactive: -8.55%
C#C[C@]1(O)CC[C@H]2[C@@H]3CCC4=CC(=O)CC[C@@H]4[C@H]3CC[C@@]21CC | inactive: -15.4%
COc1cccc(-n2c(-c3ccc(Cl)cc3)cc3c2CC(C)(C)CC3=O)c1 | inactive: -15.4%
O=C(Nc1ccc(F)cc1F)C(Cc1ccccc1)N1Cc2ccccc2C1=O (centres undefined) | inactive: -18.1%
COc1ccc(C)cc1NC(=O)C1CCN(S(=O)(=O)c2c(C)noc2/C=C/c2ccco2)CC1 | inactive: -19.7%
CCOc1ccc(NC(=O)CCC(=O)N2CC(C)Oc3ccc(C)cc32)cc1 (centres undefined) | inactive: -7.17%
COc1ccc(CN2C(=O)c3oc4ccc(F)cc4c(=O)c3C2c2ccc(O)cc2)cc1 (centres undefined) | inactive: -16.2%
Cc1ccc(C(=O)Nc2nc3ccc(S(=O)(=O)N4CCCC4)cc3s2)cc1 | inactive: 0.658%
Cc1ccc(-c2nnc(SCC(=O)NC3CCCC3)nc2-c2ccc(C)cc2)cc1 | inactive: -16%
Cc1nc(N2CCOCC2)c2c(C(=O)NCCc3ccccc3)c(C)oc2n1 | inactive: -5.52%
CCCCn1cc2c(c1-c1ccccc1Br)c(=O)n(C)c(=O)n2C | inactive: -17%
O=C(/C=C/c1ccccc1)NCCO | inactive: 6.44%
Cc1ccc(C(=O)n2nc(-c3ccco3)nc2NCc2cccs2)cc1 | inactive: -12%
CCN(CC)CCNC(=O)c1nn(-c2ccc(OC)c(Cl)c2)c(=O)c2c1c1ccccc1n2C | inactive: -8.1%
CN(C)S(=O)(=O)n1cc(/C=C(\NC(=O)c2ccccc2Cl)C(=O)NCCCn2ccnc2)c2ccccc21 | inactive: 11.5%
O=C(NCCc1ccccc1)C1(c2cccs2)CCOCC1 | inactive: -1.53%
CC1(C)[C@@H](OC(=O)CCC(=O)O)CC[C@]2(C)[C@H]3C(=O)C=C4[C@@H]5C[C@@](C)(C(=O)O)CC[C@]5(C)CC[C@@]4(C)[C@]3(C)CC[C@@H]12 | inactive: -11.6%
O=C(NCCc1ccccc1Cl)c1ccc2c(c1)nc1n2CCOC1 | inactive: -3.66%
O=C(CSc1nc2c(c(=O)[nH]1)CN(Cc1ccc(F)cc1)CC2)Nc1ccccc1Cl | inactive: -0.318%
CCOC(=O)C1CCN(S(=O)(=O)c2cc3c4c(c2)CC(=O)N4CCC3)CC1 | inactive: -10.7%
CCCNC(=O)c1c(C)nn(-c2cccc(C)c2)c1-n1cccc1 | inactive: -7.7%
CCc1nn(C(C)C(=O)N2CCN(c3cccc(C(F)(F)F)c3)CC2)c(=O)c2cc3occc3n12 (centres undefined) | inactive: -15.1%
COc1cccc(C(=O)N2c3nc(-c4ccco4)nn3C3(CCCCC3)[C@@H]3CCCC[C@@H]32)c1 | inactive: -5.57%
CCc1ccccc1NC(=O)CSCc1cnn(-c2ccccc2)c1-n1cccc1 | inactive: -10.5%

SMILES | activation
Cc1ccc(Cn2cc(C(=O)c3ccc(F)cc3)c(=O)c3cc4c(cc32)OCCO4)cc1 | inactive: -12.6%
COc1cc(OC)c(NC(=O)CC(c2cccs2)N2Cc3ccccc3C2=O)cc1Cl (centres undefined) | inactive: -18.5%
Cc1ccccc1Nc1sc(C(=O)c2ccccc2)c(N)c1C(=O)NCc1ccc(Cl)cc1 | inactive: -14.9%
Cc1ccc2c(c1)c1c(c(=O)n(-c3ccccc3C)c(=O)n1CC(=O)N1CCCC1)n2C | inactive: -15.2%
Cc1ccc2ncc3c(-c4ccc(F)cc4)nn(-c4cccc(F)c4)c3c2c1 | inactive: -0.318%
CCOc1ccccc1CNCCNC(=O)c1nonc1N | inactive: -7.73%
COc1cc(NS(=O)(=O)c2cnc(N)nc2)cc(OC)c1 | inactive: -8.54%
Cc1nc(-c2ccc(S(=O)(=O)Nc3ccc(C#N)cc3)cc2)co1 | inactive: -31.4%
COC(=O)c1ccc(NC(=O)CSc2nc(C)cc(C)c2C(=O)Nc2ccccc2)cc1 | inactive: -9.78%
CCc1cccc(NC(=O)c2cn3c4c(ccc(Cl)c4c2=O)OC(C)C3)c1 (centres undefined) | inactive: -8.34%
COc1ccc(N2CCN(C(=O)c3cccc(-n4c(C)nc5cccnc54)c3)CC2)cc1 | inactive: -10.8%
COc1cc2cc(CNc3ccccc3)c(=O)n(CC(=O)Nc3ccccc3)c2cc1OC | inactive: -18.8%
O=C(NCCC1=CCCCC1)c1ccc2c(c1)N(Cc1ccccc1F)C(=O)c1ccccc1S2=O (centres undefined) | inactive: 2.53%
CCc1cccc(-n2c(=O)c3cccnc3n2CC(=O)NCc2ccccc2)c1 | inactive: -21.1%
CCn1nnc2cc(C(=O)Nc3ccc(Cl)cc3C)ccc21 | inactive: -6.19%
CCCNS(=O)(=O)c1ccc2nc(NC(=O)c3ccc(F)cc3)sc2c1 | inactive: -7.15%
COc1cc(C(=O)OCc2cc(=O)n3nc(C4CCCCC4)sc3n2)cc(OC)c1OC | inactive: 3.6%
CCOC(=O)c1cc(C)n(CC2CCC(C(=O)Nc3ccc(C(C)=O)cc3)CC2)c1C (centres undefined) | inactive: -20.5%
CCN(CC)c1nc2c(-c3cccc(Br)c3)nnn2c2ccccc12 | inactive: -9.86%
CCN1CCN(C(c2ccc(OC)cc2)c2c(O)cc(C)n(Cc3ccco3)c2=O)CC1 (centres undefined) | inactive: -4.93%
COc1ccc(CNC(=O)c2ccc(NC(=O)N3CC4CCCN4c4ccccc43)cc2)cc1 (centres undefined) | inactive: -12.2%
COc1cccc(NC(=O)C2CCN(S(=O)(=O)c3cccc4nonc34)CC2)c1 | inactive: -12%
COc1cccc(NC(=O)Cn2c(=O)cc(C)c3c(C)nn(-c4cccc(F)c4)c32)c1 | inactive: -5.43%
CC1CCCCN1C(=O)Cn1c(=O)n(-c2ccc(Cl)cc2)c(=O)c2c3c(sc21)CCC3 (centres undefined) | inactive: -13.6%

SMILES | activation
Cc1ccc(-n2ncc(C(=O)NCCc3ccccc3)c2C2CCN(C(=O)OC(C)(C)C)CC2)c(C)c1 | inactive: -11.3%
Cc1ccc2c(=O)cc(C(=O)Nc3ccc(S(=O)(=O)N4CCC(C)CC4)cc3)oc2c1C | inactive: -5.38%
CC(=O)OCC(=O)[C@H]1CC[C@H]2[C@@H]3CCC4=CC(=O)CC[C@]4(C)[C@H]3CC[C@]12C | inactive: -7.92%
Cc1ccc(Nc2c(-c3ccc(N(C)C)cc3)nc3nc[nH]n23)cc1 | inactive: -18.2%
COCCCn1c(=N)c(C(=O)NCC2CCCO2)cc2c(=O)n3cc(C)ccc3nc21 (centres undefined) | inactive: -9.7%
CSc1nc(=O)c2c(n1C)NC(=O)CC2c1ccccc1OC(C)C (centres undefined) | inactive: -10%
COc1ccc(-c2nc3ccccc3n3c(-c4cccc(C)c4)c4c(=O)n(C)c(=O)n(C)c4c23)cc1 | inactive: -34.4%
COc1cc(C2CC(=O)Nc3c2c(C)nn3-c2nc(C)cc(C)n2)cc(OC)c1O (centres undefined) | inactive: -7.08%
O=C(Cc1ccccc1)Nc1sc2c(c1C(=O)Nc1ccccc1)CCCCC2 | inactive: 3.3%
Cc1ccc(CSc2nnc(-n3c(=O)c(C#N)cc4c(=O)n5cccc(C)c5nc43)s2)cc1 | inactive: 2.04%
COc1cccc(-c2nn3c(=O)cc(CN4CCN(S(=O)(=O)c5ccc(C)cc5)CC4)nc3s2)c1 | inactive: -23.3%
COc1cccc(CNCCSc2nnnn2C)c1OCc1ccccc1 | inactive: -16.1%
COC(=O)CC1Oc2ccccc2-n2cc(-c3ccc(C)cc3)nc21 (centres undefined) | inactive: -0.275%
CSc1ccc(CNC(=O)C2CCCN(S(=O)(=O)N(C)c3ccc(F)cc3)C2)cc1 (centres undefined) | inactive: -8.64%
COc1cccc(-c2cn3c(n2)sc2cc(C(=O)NCCCc4ccccc4)ccc23)c1 | inactive: -4.31%
CCOc1ccc(CCNC(=O)CCCn2c(=O)c3cccn3c3cccnc32)cc1OCC | inactive: -10%
CCc1ccc2c(c1)c(=O)c(S(=O)(=O)c1ccc(Cl)cc1)cn2CC | inactive: -14.2%
O=C(CC1(O)C(=O)N(CCc2ccccc2)c2ccc(Br)cc21)c1ccc(F)cc1 (centres undefined) | inactive: -9.33%
COc1ccc(OCC(=O)Nc2cc(-c3ccccc3F)nn2-c2ccccc2)cc1 | inactive: -18.7%
CCCn1ccc2c(OCC(=O)Nc3cc(C)ccc3C)cccc2c1=O | inactive: -11.1%
Cc1ccc(S(=O)(=O)NCC2CCC(C(=O)NCc3ccc(F)cc3)CC2)cc1 (centres undefined) | inactive: -13.2%
CCc1ccc(CNC(=O)c2cc3cc(S(=O)(=O)N4CCCCC4)ccc3n2C)cc1 | inactive: -2.45%
